Laboratory results from patent publication US20240270806A1 (Chugai, published 2024).
Positions count from the first letter of the chain named.

B1: Bivalent IL-12 fusion protein FP17 (other)
heavy: QVQLVQSGAEVKKPGSSVKVSCKASGGTFSDYYLHWSRQAPGQGLEWMGWIDPENQDTEYAPKFQGRVTITADESTSTAYMELSSLRSEDTAVYYCARTKELRYIDVWGQGTLVTVSSYSATGRSANPRGASTKGPSVFPLAPCSKSTSGGTAALGCLVKDYFPEPVTVSWNSGALTSGVHTFPAVLQSSGLYSLSSVVTVPSSSLGTQTYICNVNHKPSNTKVDKRVGGGGSGGGGS[human IgG1 Fc with changes cut from this listing]GSGGSGGSGGSGGSGGSIWELKKDVYVVELDWYPDAPGEMVVLTCDTPEEDGITWTLDQSSEVLGSGKTLTIQVKEFGDAGQYTCHKGGEVLSHSLLLLHKKEDGIWSTDILKDQKEPKNKTFLRCEAKNYSGRFTCWWLTTISTDLTFSVKSSRGSSDPQGVTCGAATLSAERVRGDNKEYEYSVECQEDSACPAAEESLPIEVMVDAVHKLKYENYTSSFFIRDIIKPDPPKNLQLKPLKNSRQVEVSWEYPDTWSTPHSYFSLTFCVQVQGKHKEKKDRVFTDKTSATVICRKNASISVRAQDRYYSSSWSEWASVPCSGGGGSGGGGSGGGGSGGGGSNLPVATPDPGMFPCLHHSQNLLRAVSNMLQKARQTLEFYPCTSEEIDHEDITKDKTSTVEACLPLELTKNESCLNSRETSFITNGSCLASRKTSFMMALCLSSIYEDLKMYQVEFKTMNAKLLMDPKRQIFLDQNMLAVIDELMQALNFNSETVPQKSSLEEPDFYKTKIKLCILLHAFRIRAVTIDRVMSYLNAS
light: DIVMTQSPLSLPVTPGEPASISCRSSDSISINLHWYQQKPGQAPRQLIAFASQSISGVPSRFSGSGSGTDFTLTISSLQPEDFATYYCQQSNSFPLTFGQGTKVEIKRTVAAPSVFIFPPSDEQLKSGTASVVCLLNNFYPREAKVQWKVDNALQSGNSQESVTEQDSKDSTYSLSSTLTLSKADYEKHKVYACEVTHQGLSSPVTKSFNRGEC
B2: Bivalent IL-12 fusion protein FP16 (other)
heavy: QVQLVQSGAEVKKPGSSVKVSCKASGGTFSDYYLHWSRQAPGQGLEWMGWIDPENGDTEYAPKFQGRVTITADESTSTAYMELSSLRSEDTAVYYCARNKELRYIDVWGQGTLVTVSSYSATGRSANPRGASTKGPSVFPLAPCSKSTSGGTAALGCLVKDYFPEPVTVSWNSGALTSGVHTFPAVLQSSGLYSLSSVVTVPSSSLGTQTYICNVNHKPSNTKVDKRVGGGGSGGGGS[human IgG1 Fc with changes cut from this listing]GSGGSGGSGGSGGSGGSIWELKKDVYVVELDWYPDAPGEMVVLTCDTPEEDGITWTLDQSSEVLGSGKTLTIQVKEFGDAGQYTCHKGGEVLSHSLLLLHKKEDGIWSTDILKDQKEPKNKTFLRCEAKNYSGRFTCWWLTTISTDLTFSVKSSRGSSDPQGVTCGAATLSAERVRGDNKEYEYSVECQEDSACPAAEESLPIEVMVDAVHKLKYENYTSSFFIRDIIKPDPPKNLQLKPLKNSRQVEVSWEYPDTWSTPHSYFSLTFCVQVQGKHKEKKDRVFTDKTSATVICRKNASISVRAQDRYYSSSWSEWASVPCSGGGGSGGGGSGGGGSGGGGSNLPVATPDPGMFPCLHHSQNLLRAVSNMLQKARQTLEFYPCTSEEIDHEDITKDKTSTVEACLPLELTKNESCLNSRETSFITNGSCLASRKTSFMMALCLSSIYEDLKMYQVEFKTMNAKLLMDPKRQIFLDQNMLAVIDELMQALNFNSETVPQKSSLEEPDFYKTKIKLCILLHAFRIRAVTIDRVMSYLNAS
light: B1 light with S25A, D27Q, N92Y
B3: Bivalent IL-12 fusion protein FP21 (other)
heavy: QVQLVQSGAEVKKPGSSVKVSCKASGGTFSDYYLHWSRQAPGQGLEWMGWIDAENQDTEYAPKFQGRVTITADESTSTAYMELSSLRSEDTAVYYCARTKELRYIDQWGQGTLVTVSSTSGSGRSATPRGASTKGPSVFPLAPCSKSTSGGTAALGCLVKDYFPEPVTVSWNSGALTSGVHTFPAVLQSSGLYSLSSVVTVPSSSLGTQTYICNVNHKPSNTKVDKRVGGGGSGGGGS[human IgG1 Fc with changes cut from this listing]GSGGSGGSGGSGGSGGSIWELKKDVYVVELDWYPDAPGEMVVLTCDTPEEDGITWTLDQSSEVLGSGKTLTIQVKEFGDAGQYTCHKGGEVLSHSLLLLHKKEDGIWSTDILKDQKEPKNKTFLRCEAKNYSGRFTCWWLTTISTDLTFSVKSSRGSSDPQGVTCGAATLSAERVRGDNKEYEYSVECQEDSACPAAEESLPIEVMVDAVHKLKYENYTSSFFIRDIIKPDPPKNLQLKPLKNSRQVEVSWEYPDTWSTPHSYFSLTFCVQVQGKHKEKKDRVFTDKTSATVICRKNASISVRAQDRYYSSSWSEWASVPCSGGGGSGGGGSGGGGSGGGGSNLPVATPDPGMFPCLHHSQNLLRAVSNMLQKARQTLEFYPCTSEEIDHEDITKDKTSTVEACLPLELTKNESCLNSRETSFITNGSCLASRKTSFMMALCLSSIYEDLKMYQVEFKTMNAKLLMDPKRQIFLDQNMLAVIDELMQALNFNSETVPQKSSLEEPDFYKTKIKLCILLHAFRIRAVTIDRVMSYLNAS
light: B1 light with S56E
B4: Bivalent IL-12 fusion protein FP19 (other)
heavy: QVQLVQSGAEVKKPGSSVKVSCKASGGTFSDYYLHWSRQAPGQGLEWMGWIDPENGDTEYAPKFQGRVTITADESTSTAYMELSSLRSEDTAVYYCARNKELRYIDVWGQGTLVTVSSTSGSGRSATPRGASTKGPSVFPLAPCSKSTSGGTAALGCLVKDYFPEPVTVSWNSGALTSGVHTFPAVLQSSGLYSLSSVVTVPSSSLGTQTYICNVNHKPSNTKVDKRVGGGGSGGGGS[human IgG1 Fc with changes cut from this listing]GSGGSGGSGGSGGSGGSIWELKKDVYVVELDWYPDAPGEMVVLTCDTPEEDGITWTLDQSSEVLGSGKTLTIQVKEFGDAGQYTCHKGGEVLSHSLLLLHKKEDGIWSTDILKDQKEPKNKTFLRCEAKNYSGRFTCWWLTTISTDLTFSVKSSRGSSDPQGVTCGAATLSAERVRGDNKEYEYSVECQEDSACPAAEESLPIEVMVDAVHKLKYENYTSSFFIRDIIKPDPPKNLQLKPLKNSRQVEVSWEYPDTWSTPHSYFSLTFCVQVQGKHKEKKDRVFTDKTSATVICRKNASISVRAQDRYYSSSWSEWASVPCSGGGGSGGGGSGGGGSGGGGSNLPVATPDPGMFPCLHHSQNLLRAVSNMLQKARQTLEFYPCTSEEIDHEDITKDKTSTVEACLPLELTKNESCLNSRETSFITNGSCLASRKTSFMMALCLSSIYEDLKMYQVEFKTMNAKLLMDPKRQIFLDQNMLAVIDELMQALNFNSETVPQKSSLEEPDFYKTKIKLCILLHAFRIRAVTIDRVMSYLNAS
light: B1 light with S25A, D27Q, N92Y
B5: Bivalent IL-12 fusion protein FP20 (other)
heavy: QVQLVQSGAEVKKPGSSVKVSCKASGGTFSDYYLHWSRQAPGQGLEWMGWIDPENQDTEYAPKFQGRVTITADESTSTAYMELSSLRSEDTAVYYCARTKELRYIDVWGQGTLVTVSSTSGSGRSATPRGASTKGPSVFPLAPCSKSTSGGTAALGCLVKDYFPEPVTVSWNSGALTSGVHTFPAVLQSSGLYSLSSVVTVPSSSLGTQTYICNVNHKPSNTKVDKRVGGGGSGGGGS[human IgG1 Fc with changes cut from this listing]GSGGSGGSGGSGGSGGSIWELKKDVYVVELDWYPDAPGEMVVLTCDTPEEDGITWTLDQSSEVLGSGKTLTIQVKEFGDAGQYTCHKGGEVLSHSLLLLHKKEDGIWSTDILKDQKEPKNKTFLRCEAKNYSGRFTCWWLTTISTDLTFSVKSSRGSSDPQGVTCGAATLSAERVRGDNKEYEYSVECQEDSACPAAEESLPIEVMVDAVHKLKYENYTSSFFIRDIIKPDPPKNLQLKPLKNSRQVEVSWEYPDTWSTPHSYFSLTFCVQVQGKHKEKKDRVFTDKTSATVICRKNASISVRAQDRYYSSSWSEWASVPCSGGGGSGGGGSGGGGSGGGGSNLPVATPDPGMFPCLHHSQNLLRAVSNMLQKARQTLEFYPCTSEEIDHEDITKDKTSTVEACLPLELTKNESCLNSRETSFITNGSCLASRKTSFMMALCLSSIYEDLKMYQVEFKTMNAKLLMDPKRQIFLDQNMLAVIDELMQALNFNSETVPQKSSLEEPDFYKTKIKLCILLHAFRIRAVTIDRVMSYLNAS
light: B1 light
B6: Bivalent IL-12 fusion protein FP38 (other)
heavy: QVQLVQSGAEVKKPGSSVKVSCKASGGTFSDYYLHWSRQAPGQGLEWMGWIDPENGDTEYAPKFQGRVTITADESTSTAYMELSSLRSEDTAVYYCARNKELRYIDVWGQGTLVTVSSTSGSGRSATPRGASTKGPSVFPLAPCSKSTSGGTAALGCLVKDYFPEPVTVSWNSGALTSGVHTFPAVLQSSGLYSLSSVVTVPSSSLGTQTYICNVNHKPSNTKVDKRVGGGGSGGGGS[human IgG1 Fc with changes cut from this listing]GSGGSGGSGGSGGSGGSIWELKKDVYVVELDWLPDAPGEMVVLTCDTPEEDGITWTLDQSSEVLGSGKTLTIQVKEFGDAGQYTCHKGGEVLSHSLLLLHKKEDGIWSTDILKDQKEPKNKTFLRCEAKNYSGRFTCWWLTTISTDLTFSVKSSRGSSDPQGVTCGAATLSAERVRGDNKEYEYSVECQEDSACPAAEESLPIEVMVDAVHKLKYENYTSSFFIRDIIKPDPPKNLQLKPLKNSRQVEVSWEYPDTWSTPHSYFSLTFCVQVQGKHKEKKDRVFTDKTSATVICRKNASISVRAQDRYYSSSWSEWASVPCSGGGGSGGGGSGGGGSGGGGSNLPVATPDPGMFPCLHHSQNLLRAVSNMLQKARQTLEFYPCTSEEIDHEDITKDKTSTVEACLPLELTKNESCLNSRETSFITNGSCLASRKTSFMMALCLSSIYEDLKMYQVEFKTMNAKLLMDPKRQIFLDQNMLAVIDELMQALNFNSETVPQKSSLEEPDFYKTKIKLCILLHAFRIRAVTIDRVMSYLNAS
light: B1 light with S25A, D27Q

Target: T1, Human IL-12 receptor (human IL-12Rb1 and IL-12Rb2) (human, UniProt P42701 24-662; Q99665 24-862)
Experiment: cell-based or functional assay

Row | Binder | Fold change (window), IL-12 luciferase assay [fold]
1 | B1 | 30.6
2 | B2 | 27
3 | B3 | 42.9
4 | B4 | 54.9
5 | B5 | 75.7

Target: T1, Human IL-12 receptor (human IL-12Rb1 …)
Experiment: cell-based or functional assay
Remark: another data set of the same source

Row | Binder | Fold change (window), IL-12 luciferase assay [fold]
6 | B6 | 60
